Data from PubChem BioAssay AID1347165 (National Center for Advancing Translational Sciences (NCATS), 2019).
Hit rate of the full screen: of about 220,000 compounds, about 5,700 (2.6%) were called active. This list was built around the results that the source calls inconclusive (neither active nor inactive); the mix of calls is not that of the screen. Calls come from the whole dose curve; as a rule, active = well fitted inhibition curve with a large enough effect; inconclusive = small, poorly fitted or top-dose-only effect; inactive = no such curve, though single readings can be large or run the other way. A potency beside an inconclusive call is a rough fit, not a confirmed value.
Note: nearly all actives have a fitted effect of over 70% in size.
Potency is the fitted concentration of half-maximal effect; tags give direction and shape of the fitted curve.
Throughout, for activity change, negative = inhibition: 0% is about no effect.

What follows are compounds tested against Lysine-specific demethylase 5B (Homo sapiens) (UniProt Q9UGL1) (assay: Primary screen for KDM5B Histone Demethylases FDH-coupled qHTS). Settings: FDH-coupled NADH fluorescence (FDH is formaldehyde dehydrogenase); activity change, negative = inhibition: at 57.7 µM (top of the series) unless noted.
Sequence of UniProt Q9UGL1 (Q9UGL1 whole entry, looked up): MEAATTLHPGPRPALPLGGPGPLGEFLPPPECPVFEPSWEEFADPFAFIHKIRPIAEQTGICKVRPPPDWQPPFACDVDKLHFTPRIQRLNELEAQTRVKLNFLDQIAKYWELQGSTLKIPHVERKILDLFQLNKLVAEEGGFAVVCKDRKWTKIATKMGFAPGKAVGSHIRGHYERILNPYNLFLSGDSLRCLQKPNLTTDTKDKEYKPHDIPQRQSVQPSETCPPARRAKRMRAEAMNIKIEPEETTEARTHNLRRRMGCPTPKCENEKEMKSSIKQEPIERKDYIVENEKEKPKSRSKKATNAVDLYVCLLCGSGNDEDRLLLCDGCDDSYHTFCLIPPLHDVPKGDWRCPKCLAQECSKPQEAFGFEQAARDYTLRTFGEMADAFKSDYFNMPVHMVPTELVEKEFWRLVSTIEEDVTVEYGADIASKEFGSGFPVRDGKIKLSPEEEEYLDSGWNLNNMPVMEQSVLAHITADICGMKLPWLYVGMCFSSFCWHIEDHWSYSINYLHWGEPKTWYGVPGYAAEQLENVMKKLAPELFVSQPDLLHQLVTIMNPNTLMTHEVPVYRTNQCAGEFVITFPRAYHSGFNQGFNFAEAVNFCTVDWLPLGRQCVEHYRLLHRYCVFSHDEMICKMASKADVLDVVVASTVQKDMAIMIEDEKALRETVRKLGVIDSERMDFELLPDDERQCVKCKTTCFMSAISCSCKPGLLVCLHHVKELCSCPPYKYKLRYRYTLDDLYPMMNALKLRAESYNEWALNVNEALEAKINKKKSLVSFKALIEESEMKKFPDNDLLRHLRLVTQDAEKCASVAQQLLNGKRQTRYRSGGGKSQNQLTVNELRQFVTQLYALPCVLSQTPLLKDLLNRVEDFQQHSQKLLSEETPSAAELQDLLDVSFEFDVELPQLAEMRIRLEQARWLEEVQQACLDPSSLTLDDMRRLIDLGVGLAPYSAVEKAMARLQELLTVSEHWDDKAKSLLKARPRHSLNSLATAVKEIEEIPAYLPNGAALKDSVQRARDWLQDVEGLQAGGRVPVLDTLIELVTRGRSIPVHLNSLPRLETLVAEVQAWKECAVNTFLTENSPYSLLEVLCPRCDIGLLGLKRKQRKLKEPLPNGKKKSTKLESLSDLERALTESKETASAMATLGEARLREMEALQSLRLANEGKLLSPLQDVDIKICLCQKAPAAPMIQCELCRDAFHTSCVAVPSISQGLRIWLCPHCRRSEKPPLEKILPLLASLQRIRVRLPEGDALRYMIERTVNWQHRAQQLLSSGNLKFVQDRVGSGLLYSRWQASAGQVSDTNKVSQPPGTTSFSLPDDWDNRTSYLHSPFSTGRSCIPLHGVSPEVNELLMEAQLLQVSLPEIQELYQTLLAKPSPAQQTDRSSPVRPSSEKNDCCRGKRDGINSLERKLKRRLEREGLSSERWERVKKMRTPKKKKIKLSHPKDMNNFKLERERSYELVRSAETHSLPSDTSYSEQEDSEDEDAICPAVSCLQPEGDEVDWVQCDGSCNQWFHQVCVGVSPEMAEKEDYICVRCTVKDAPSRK
Method in brief: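 Coupled FDH/NAD⁺ fluorescence readout. KDM5BΔAP 200 nM final; compound titration, 10 min RT preincubation; substrate mix 12.5 µM H3K4me3, 25 µM 2-OG, 50 µM Fe(II), 100 µM ascorbate, 0.25 mM NAD⁺, 0.25 U/mL FDH; ΔRFU over 30 min.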
With `O=[S+]1([O-])NCC2(CCN(CC3CC3)CC2)Oc2ncccc21` the Potency was inconclusive: 112 µM [inhibitor, single point]. `COc1cccc(S(=O)(=O)N2CC(Oc3ccccc3-c3noc(C)n3)C2)c1` was tested, and the Potency was “inactive”. In the case of `Cc1cn2cc(C(=O)N(C)CCC(O)c3ccccc3)ccc2n1` (centres undefined), the Potency is reported as inconclusive: 22.4 µM [inhibitor, partial curve]. For `Cc1cccc(S(=O)(=O)N2C[C@@H](F)C[C@H]2C(=O)N2CCCCC2)c1`, the Potency was “inactive”. In the case of `Nc1nccnc1C(=O)NCc1ccnc(Oc2ccc(F)cc2)c1`, the Potency is reported as inconclusive: 28.2 µM [inhibitor, partial curve, poor fit]. In the case of `O=C(Cn1c(=O)n(-c2ccc(Cl)cc2)c(=O)c2oc3ccccc3c21)Nc1ccccc1`, the Potency is reported as inconclusive: 3.16 µM [inhibitor, partial curve, poor fit]. In the case of `COc1ccc(OC2CCN(C(C)=O)CC2)c(C(=O)NC(C)Cc2cccnc2)c1` (centres undefined), the Potency is reported as inconclusive: 31.6 µM [inhibitor, partial curve, poor fit]. `CCc1cccc(C)c1NC(=O)NCC(O)c1ccccc1` (centres undefined) was tested, and the Potency was “inactive”. In the case of `Cc1cc(C)cc(NC(=O)C2CCC(CNS(=O)(=O)c3ccc4c(c3)C(C)(C)C(=O)N4C)CC2)c1` (centres undefined), the Potency is reported as inconclusive: 28.2 µM [inhibitor, partial curve, poor fit]. For `O=C(O)c1ccc(/C=N/Nc2ccc(Cl)nn2)cc1`, the Potency was inconclusive: 28.2 µM [inhibitor, partial curve, poor fit]. `Cc1cn2nc(C(=O)N3CCC(NC(=O)c4ccc(F)c(F)c4)CC3)cc2c(=O)[nH]1` was tested, and the Potency was inconclusive: 39.8 µM [inhibitor, partial curve, poor fit]. With `Brc1ccc(CSc2ccc(-c3ccccn3)nn2)cc1` the Potency was inconclusive: 28.2 µM [inhibitor, partial curve, poor fit]. `Cc1oc(-c2ccc(Cl)cc2)nc1CS(=O)CC(=O)NCCN1CCOCC1` (centres undefined) was tested, and the Potency was “inactive”. For `O=C(CCC1CCCN(Cc2cccn2-c2cccnc2)C1)Nc1ccccc1F` (centres undefined), the Potency was inconclusive: 39.8 µM [inhibitor, partial curve, poor fit]. In the case of `CCOc1ccc(C(=O)Nc2cc(-c3cn4cccnc4n3)ccc2C)cc1OCC`, the Potency is reported as inconclusive: 4.47 µM [inhibitor, full curve, poor fit]. In the case of `COCc1nnc(NC(=O)C2c3ccccc3C(=O)N(CC(C)C)C23CCCCC3)s1` (centres undefined), the Potency is reported as “inactive”. With `O=C(Nc1ccc(Cl)cc1)c1cc(S(=O)(=O)N2CCc3ccccc32)ccc1F` the Potency was inconclusive: 28.2 µM [inhibitor, partial curve, poor fit]. In the case of `Cc1ccc(S(=O)(=O)Nc2nc3n(n2)C(c2ccccc2Cl)C=C(c2ccccc2)N3)cc1` (centres undefined), the Potency is reported as inconclusive: 35.5 µM [inhibitor, partial curve, poor fit]. In the case of `CN(Cc1ccccc1)C(=O)C1CCN(S(=O)(=O)c2ccc3nc4c(c(C(=O)O)c3c2)CCCC4)CC1`, the Potency is reported as inconclusive: 28.2 µM [inhibitor, single point]. For `COc1cccc(-c2ccc3c(n2)CNC(=O)CO3)c1`, the Potency was active: 31.6 µM. For `Cc1ccc(N/N=C/C(Br)=C/c2ccccc2)cc1Cl`, the Potency was inconclusive: 39.8 µM [inhibitor, single point]. In the case of `Cc1ccc(Cl)cc1N1CCN(CC(=O)NC2CCS(=O)(=O)C2)CC1` (centres undefined), the Potency is reported as “inactive”. `COc1ccccc1CNC(=O)c1cc(C)nc2ccc(C)cc12` was tested, and the Potency was “inactive”. With `O=C(Cn1ccn2nc(-c3ccccc3)c(CO)c2c1=O)Nc1ccc(C(F)(F)F)cc1` the Potency was inconclusive: 17.8 µM [inhibitor, partial curve]. In the case of `O=C(O)C[C@@H]1CCN(C(=O)C(=O)O)C[C@@H]1CC1=NCCc2cc(F)ccc21`, the Potency is reported as inconclusive: 35.5 µM [inhibitor, partial curve, poor fit]. For `COc1ncccc1CNC(=O)c1ccc2c(c1)NC(=O)CS2`, the Potency was “inactive”. In the case of `CC1=C[C@@H](CN2CCN(c3ncccn3)CC2)[C@H](C(C)C)C[C@H]1Cc1nnc(-c2ccccc2F)o1`, the Potency is reported as inconclusive: 20 µM [inhibitor, single point]. In the case of `CN1CCC2(CC1)Oc1ccccc1C1CC(c3ccc(Cl)c(Cl)c3)=NN12` (centres undefined), the Potency is reported as inconclusive: 35.5 µM [inhibitor, single point]. For `O=C(O)C1CCc2nnc(C3CCCN([S+](=O)([O-])c4cc(C(F)(F)F)cc(C(F)(F)F)c4)C3)n21` (centres undefined), the Potency was inconclusive: 70.8 µM [inhibitor, partial curve, poor fit]. For `O=C(NCCc1ccncc1)c1ccc(Cl)cc1Cl`, the Potency was “inactive”. `O=C(NC1CCCN(c2cc(-c3ccc(F)cc3)[nH]n2)C1)c1cc(F)ccc1F` (centres undefined) was tested, and the Potency was “inactive”. `COc1ccc(-c2cc3ccc(OS(=O)(=O)c4ccccc4)cc3oc2=O)cc1` was tested, and the Potency was inconclusive: 28.2 µM [inhibitor, partial curve, poor fit]. In the case of `COc1ccc(C)cc1NC(=O)CSc1ccc(-c2ccccn2)nn1`, the Potency is reported as inconclusive: 39.8 µM [inhibitor, partial curve, poor fit]. `Cc1ccc(C(=O)OCC(=O)N2CCc3ccccc32)cc1S(=O)(=O)N1CCCCC1` was tested, and the Potency was “inactive”. With `Cn1c(SCC(=O)c2ccc(F)cc2)nnc1-c1ccccc1Br` the Potency was inconclusive: 1.78 µM [inhibitor, full curve, poor fit]. For `Cc1cc(C)c(Sc2ccccc2-c2ccccc2)c(C)c1`, the Potency was “inactive”. `CN1C(=O)c2cccn2CC1C(=O)N1CCN(c2ncccn2)CC1` (centres undefined) was tested, and the Potency was inconclusive: 31.6 µM [inhibitor, single point]. For `O=C(O)c1ccc(CN2Cc3[nH]cnc3C[C@H]2C(=O)NCc2ccco2)cc1`, the Potency was inconclusive: 31.6 µM [inhibitor, single point]. `C/C(=N/Nc1ccc(Cl)c(Cl)c1)c1ccc(C#N)cc1` was tested, and the Potency was inconclusive: 28.2 µM [inhibitor, partial curve, poor fit]. For `COCCCN1CC2(CCN(C(=O)c3cnc(SC)nc3)CC2)CC1=O`, the Potency was “inactive”. `Cc1nn2c(c1-c1ccccc1[S+](C)(=O)[O-])N(Cc1ccccc1)CCC2` was tested, and the Potency was “inactive”. For `Cc1cc(C)nc(N/N=C/c2cn[nH]c2-c2ccc(F)cc2)n1`, the Potency was inconclusive: 39.8 µM [inhibitor, single point]. For `Cn1nc2n(c1=O)CCC(NS(=O)(=O)c1cccc3cccnc13)CC2` (centres undefined), the Potency was “inactive”. `CC1CCN(S(=O)(=O)c2ccc3c(c2)CCN3C(=O)Nc2ccc(Br)cc2)CC1` was tested, and the Potency was inconclusive: 39.8 µM [inhibitor, single point]. For `CC1=C(C(=O)OC(C)(C)C)C(c2ccc(F)cc2)C(C#N)=C(N)O1` (centres undefined), the Potency was inconclusive: 25.1 µM [inhibitor, partial curve, poor fit]. For `COc1ccc(NS(=O)(=O)c2ccc(-c3cc(C(F)(F)F)on3)s2)cc1OC`, the Potency was “inactive”. `Cn1cncc1-c1nnc([C@H]2CCN(CC3CC3)C2)o1` was tested, and the Potency was inconclusive: 35.5 µM [inhibitor, partial curve]. With `CC1CCCC(NC(=O)c2ccc3ccccc3c2)C1C` (centres undefined) the Potency was “inactive”. `CCOc1cc(C(=O)OCC(=O)Nc2ccc(F)c(Cl)c2)ccc1OCC(=O)N1CCCCC1` was tested, and the Potency was “inactive”. With `CN1Cc2ccc(N3CCOCC3)nc2C(C)(C(=O)NCc2ccccc2)C1` (centres undefined) the Potency was inconclusive: 28.2 µM [inhibitor, partial curve, poor fit]. For `O=S1(=O)CCN(Cc2c(F)cccc2F)c2c(F)nc(N3CCOCC3)c(F)c21`, the Potency was “inactive”. `CC(C)c1noc(-c2cn(C3CCCN(C(=O)c4ccc(F)c(F)c4)C3)nn2)n1` (centres undefined) was tested, and the Potency was “inactive”. For `Cc1ccccc1-c1noc(-c2cccnc2N(C)Cc2ccc(Cl)cc2)n1`, the Potency was inconclusive: 31.6 µM [inhibitor, partial curve, poor fit]. For `O=C(Nc1ccc2ncnc(N3CCCC3)c2c1)c1ccc(OC(F)(F)F)cc1`, the Potency was inconclusive: 15.8 µM [inhibitor, partial curve]. For `CN(C)c1ccc(CNS(=O)(=O)c2ccc3[nH]c4c(c3c2)CCCCC4)cc1`, the Potency was inconclusive: 12.6 µM [inhibitor, partial curve, poor fit]. In the case of `COc1ccc(Br)cc1CNC(=O)c1nn(-c2ccc(C)cc2)c(=O)c2c1c1ccccc1n2C`, the activity change, negative = inhibition is reported as inconclusive: -34.8% [inhibitor]. In the case of `Cc1ccc(CNC(=O)c2c(O)nc3c(C)cccn3c2=O)cc1`, the Potency is reported as “inactive”. In the case of `CC(=O)N1CCC(N2CC[C@@H]3C(=O)NCCCCCCN(Cc4ccncc4)[C@@H]3C2)CC1`, the Potency is reported as inconclusive: 22.4 µM [inhibitor, partial curve, poor fit]. `CCN(CC)CCCNC(=O)c1ccc2c(c1)NC(=O)C(CS(=O)(=O)Cc1cccc(Br)c1)N2` (centres undefined) was tested, and the Potency was inconclusive: 14.1 µM [inhibitor, partial curve, poor fit]. For `COc1ccc(-c2nc(-c3c(C)noc3C)cc3cc(CN(C)C)oc23)cn1`, the Potency was active: 31.6 µM. With `Cc1nc2ccc(S(=O)(=O)NC(CC(C)C)C(=O)N3CCN(c4ccc(F)cc4)CC3)cc2s1` (centres undefined) the Potency was inconclusive: 25.1 µM [inhibitor, partial curve, poor fit]. `CCCCn1c2c(c(=O)[nH]c1=O)C(c1ccc(Br)cc1)C1=C(COC1=O)N2` (centres undefined) was tested, and the Potency was inconclusive: 28.2 µM [inhibitor, partial curve, poor fit]. In the case of `Cc1cccc(NC2=CC(c3cccc(Br)c3)N(c3cccc(C)c3)C2=O)c1` (centres undefined), the Potency is reported as inconclusive: 17.8 µM [inhibitor, partial curve, poor fit]. In the case of `COc1ccc(C(=O)N2C[C@@H]3C[C@H](C2)c2c(/C=C/c4ccc(Cl)cc4)ccc(=O)n2C3)cc1`, the Potency is reported as inconclusive: 28.2 µM [inhibitor, single point].
